Source: the supplement of paper PMC10320760
Single values of this set are uncertain.

B1: Ydj1; a variant is named by its letters at X, in order (parent)
chain: MVKETKFYDILGVPVTATDVEIKKAYRKCALKYHPDKNPSEEAAEKFKEASAAYEILSDPEKRDIYDQFGEDGLSGAGGAGGFPGGGFGFGDDIFSQFFGAGGAQRPRGPQRGKDIKHEISASLEELYKGRTAKLALNKQILCKECEGRGGKKGAVKKCTSCNGQGIKFVTRQMGPMIQRFQTECDVCHGTGDIIDPKDRCKSCNGKKVENERKILEVHVEPGMKDGQRIVFKGEADQAPDVIPGDVVFIVSERPHKSFKRDGDDLVYEAEIDLLTAIAGGEFALEHVSGDWLKVGIVPGEVIAPGMRKVIEGKGMPIPKYGGYGNLIIKFTIKFPENHFTSEENLKKLEEILPPRIVPAIPKKATVDECVLADFDPAKYNRTRASRGGANYDSDEEEQGGEGVQCXXX

Variants of: B1
Test: enrichment factor, frequency at 37 °C / frequency at 25 °C (thermotolerance selection) (ratio); higher = more growth at 37 °C, higher likelihood of farnesylation
Conditions: with Saccharomyces cerevisiae ydj1Δ (yWS304); selective temperature 37 °C; reference temperature 25 °C
In the case of DVD, the enrichment factor is reported as 1.59. For DVN, the enrichment factor was 2.23. In the case of DVM, the enrichment factor is reported as 2.02. DVA gave an enrichment factor of 1.22. Variant MTR has an enrichment factor of 0.133. MTW was tested, and the enrichment factor was 1.29. MTY showed an enrichment factor of 1.4. Variant MTT has an enrichment factor of 1.58. Work on MTV yielded an enrichment factor of 3.91. Work on MTS yielded an enrichment factor of 1.75. NVK showed an enrichment factor of 2.37. NVM gave an enrichment factor of 0.922. Variant NVA has an enrichment factor of 1.95. For NVD, the enrichment factor was 2.72. Work on NVC yielded an enrichment factor of 1.51. Variant NVF has an enrichment factor of 2.32. For NVL, the enrichment factor was 1.41. NVI was tested, and the enrichment factor was 2.67. Work on NVE yielded an enrichment factor of 1.78. Work on NVH yielded an enrichment factor of 2.98. NVG was tested, and the enrichment factor was 3.19. Variant AVE has an enrichment factor of 2.19. Variant AVL has an enrichment factor of 1.59. For AVI, the enrichment factor was 0.586. In the case of AVC, the enrichment factor is reported as 1.16. In the case of AVH, the enrichment factor is reported as 3.25. For AVD, the enrichment factor was 1.42. With AVA the enrichment factor was 0.642. AVK was tested, and the enrichment factor was 1.38. AVF gave an enrichment factor of 0.737. Variant AVG has an enrichment factor of 3.72. In the case of AVM, the enrichment factor is reported as 0.719. EVI gave an enrichment factor of 1.76. Variant EVL has an enrichment factor of 1.57. Work on EVC yielded an enrichment factor of 2.19. EVE was tested, and the enrichment factor was 1.36. Work on EVF yielded an enrichment factor of 2.62. Variant EVD has an enrichment factor of 1.77. EVH showed an enrichment factor of 3.79. For EVG, the enrichment factor was 3.12. With EVN the enrichment factor was 2.32. EVM gave an enrichment factor of 1.67. Variant EVA has an enrichment factor of 1.66. EVK showed an enrichment factor of 1.4. Work on GVD yielded an enrichment factor of 1.31. Work on GVI yielded an enrichment factor of 1.11. In the case of GVE, the enrichment factor is reported as 1.79. Work on GVA yielded an enrichment factor of 1.1. GVC was tested, and the enrichment factor was 0.769. GVH gave an enrichment factor of 2.4. GVM gave an enrichment factor of 0.842. Variant GVK has an enrichment factor of 1.32. In the case of GVG, the enrichment factor is reported as 3.98. GVF gave an enrichment factor of 1.08. For GVL, the enrichment factor was 1.57. Work on GTW yielded an enrichment factor of 0.814. GTT was tested, and the enrichment factor was 1.67. For GTS, the enrichment factor was 1.44. In the case of GTV, the enrichment factor is reported as 1.49. In the case of GTY, the enrichment factor is reported as 2.19. In the case of TTY, the enrichment factor is reported as 1.88. TTS showed an enrichment factor of 2.38. For TTR, the enrichment factor was 0.132. TTT gave an enrichment factor of 2.1. Variant TTV has an enrichment factor of 2.22. TTW gave an enrichment factor of 1.57. STW showed an enrichment factor of 1.56. STV showed an enrichment factor of 1.79. With STR the enrichment factor was 0.0965. For STT, the enrichment factor was 1.89. STY gave an enrichment factor of 2.08. For STS, the enrichment factor was 2.57. YTR showed an enrichment factor of 0.176. YTT gave an enrichment factor of 4.67. Variant YTV has an enrichment factor of 4.21. In the case of YTW, the enrichment factor is reported as 1.12. In the case of YTS, the enrichment factor is reported as 2.7. For YTY, the enrichment factor was 2.37. Variant IVF has an enrichment factor of 2.08. Work on IVI yielded an enrichment factor of 1.19. Work on IVE yielded an enrichment factor of 2.74. With IVG the enrichment factor was 2. IVA showed an enrichment factor of 0.891. For IVK, the enrichment factor was 1.53. With IVC the enrichment factor was 1.11. IVH was tested, and the enrichment factor was 1.39. IVL gave an enrichment factor of 1.67. With IVD the enrichment factor was 1.68. IVM showed an enrichment factor of 0.591. VVK was tested, and the enrichment factor was 1.11. VVF was tested, and the enrichment factor was 1.21. Work on VVD yielded an enrichment factor of 1.94. Variant VVM has an enrichment factor of 0.72. In the case of VVE, the enrichment factor is reported as 1.05. Variant VVH has an enrichment factor of 1.12. VVL was tested, and the enrichment factor was 0.853. Work on VVG yielded an enrichment factor of 1.54. VVA was tested, and the enrichment factor was 0.855. Variant VVC has an enrichment factor of 0.655. VVI was tested, and the enrichment factor was 0.772. For LTV, the enrichment factor was 1.94. With LTR the enrichment factor was 0.118. Variant LTW has an enrichment factor of 0.638. For LTS, the enrichment factor was 1.55. Work on LTT yielded an enrichment factor of 1.25. Variant LTY has an enrichment factor of 1.11. FTT showed an enrichment factor of 2.68. In the case of FTS, the enrichment factor is reported as 2.47. FTW gave an enrichment factor of 1.26. FTY gave an enrichment factor of 2.27. For FTV, the enrichment factor was 1.3. In the case of MVD, the enrichment factor is reported as 1.98. MVL showed an enrichment factor of 1.85. Work on MVC yielded an enrichment factor of 0.849. MVF was tested, and the enrichment factor was 0.643. For MVE, the enrichment factor was 1.64. MVH gave an enrichment factor of 2.7. With MVM the enrichment factor was 0.93. For MVK, the enrichment factor was 1.43. In the case of MVA, the enrichment factor is reported as 1.23. With MVG the enrichment factor was 1.21. With MVI the enrichment factor was 1.59. In the case of YVH, the enrichment factor is reported as 1.99. Work on YVD yielded an enrichment factor of 2.32. Work on YVE yielded an enrichment factor of 2.39. YVF gave an enrichment factor of 1.54. YVK gave an enrichment factor of 2.73. Variant YVL has an enrichment factor of 1.54. YVA was tested, and the enrichment factor was 1.16. Variant YVC has an enrichment factor of 2.03. With YVI the enrichment factor was 2.9. In the case of YVG, the enrichment factor is reported as 1.3. For YVM, the enrichment factor was 0.724. With WVH the enrichment factor was 2.12. Work on WVL yielded an enrichment factor of 2.05. Work on WVD yielded an enrichment factor of 2.89. WVF was tested, and the enrichment factor was 0.772. Variant WVM has an enrichment factor of 1.93. WVK was tested, and the enrichment factor was 1.04. WVE gave an enrichment factor of 3.7. In the case of WVA, the enrichment factor is reported as 0.965. WVC showed an enrichment factor of 0.717. Work on WVI yielded an enrichment factor of 2.55. In the case of WVG, the enrichment factor is reported as 3.09. DTV showed an enrichment factor of 1.06. With DTW the enrichment factor was 0.161. DTS showed an enrichment factor of 1.57. DTY gave an enrichment factor of 0.888. Variant DTT has an enrichment factor of 0.788. In the case of CTS, the enrichment factor is reported as 1.29. CTV showed an enrichment factor of 0.993. With CTW the enrichment factor was 0.943. In the case of CTT, the enrichment factor is reported as 1.84. For CTY, the enrichment factor was 1.21. CTR was tested, and the enrichment factor was 0.198. WTY was tested, and the enrichment factor was 1.48. For WTT, the enrichment factor was 2. Variant WTV has an enrichment factor of 1.83. In the case of WTS, the enrichment factor is reported as 4.16. WTR was tested, and the enrichment factor was 1.51. Variant WTW has an enrichment factor of 1.78. Work on NTR yielded an enrichment factor of 0.151. Variant NTW has an enrichment factor of 1.5. For NTY, the enrichment factor was 2.06. Variant NTT has an enrichment factor of 1.61. In the case of NTS, the enrichment factor is reported as 1.18. Variant NTV has an enrichment factor of 1.75.
